{"source": "PubChem BioAssay (NCI)", "test_system": "NCI-H322M lung", "assay": "NCI-60 cell line screen, 48 h", "note": "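Step 1: Grow cells in 96-well plates. Step 2: Expose to compound for 48 hours at 5 concentrations. Step 3: Interpolate endpoints linearly; if unreached, use highest concentration. GI50 marks 50% less growth. TGI denotes the concentration required for complete inhibition of growth.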"}
{"smiles": "CCCC(=O)NC(c1ccc(N(CC)CC)cc1)c1cc(C)c2cccnc2c1O", "note": "(stereo unspecified)", "values": [{"measurement": "GI50", "value": 501, "unit": "nM"}, {"measurement": "TGI", "value": "> 100000", "unit": "nM"}]}
{"smiles": "N#Cc1c(-c2ccc(Cl)cc2)nc(SCc2ccccc2)nc1N1CCNCC1", "values": [{"measurement": "GI50", "value": 1560, "unit": "nM"}, {"measurement": "TGI", "value": 2910, "unit": "nM"}]}
{"smiles": "O=C(Nc1ccc(-c2nc(-c3cccc(O)c3)c(-c3ccnc(Br)c3)[nH]2)cc1)c1ccccc1", "values": [{"measurement": "GI50", "value": 2050, "unit": "nM"}, {"measurement": "TGI", "value": 6200, "unit": "nM"}]}
